Out of some 330,000 compounds screened, about 560 (0.17%) were called active. Inconclusive results, whose numbers are uncertain, are shown with a selection of clear calls. Calls come from the whole dose curve; as a rule, active = well fitted inhibition curve with a large enough effect; inconclusive = small, poorly fitted or top-dose-only effect, or effect the other way; inactive = flat fitted curve, though single readings scatter. No potency is given beside an inconclusive call; the fits are too rough.
The compounds below were run against ATP-dependent 6-phosphofructokinase (Trypanosoma brucei brucei) (UniProt O15648) (assay: qHTS Assay to Find Inhibitors of T. brucei phosphofructokinase). Details: T. brucei PFK, ADP-Glo luminescence; activity, negative = inhibition: at 57.5 µM (top of the series).
Sequence of UniProt O15648 (O15648 whole entry, looked up): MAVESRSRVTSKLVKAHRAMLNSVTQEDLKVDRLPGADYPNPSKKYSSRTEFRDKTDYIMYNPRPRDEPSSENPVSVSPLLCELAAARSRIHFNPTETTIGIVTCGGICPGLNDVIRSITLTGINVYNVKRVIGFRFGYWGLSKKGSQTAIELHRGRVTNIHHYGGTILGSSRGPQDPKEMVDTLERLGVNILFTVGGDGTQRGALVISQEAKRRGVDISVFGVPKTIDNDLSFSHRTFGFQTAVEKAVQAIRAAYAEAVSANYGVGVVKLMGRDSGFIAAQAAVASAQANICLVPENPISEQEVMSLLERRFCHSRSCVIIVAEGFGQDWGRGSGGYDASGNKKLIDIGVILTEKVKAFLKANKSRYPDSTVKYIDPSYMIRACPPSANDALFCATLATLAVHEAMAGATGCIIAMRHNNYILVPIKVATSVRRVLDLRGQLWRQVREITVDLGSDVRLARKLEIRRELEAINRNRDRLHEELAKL
Procedure, shortened: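 ADP-Glo luminescence quantified ADP after 45 min at room temperature, with 1.25 nM T. brucei PFK, 0.1 mM ATP and 0.5 mM fructose-6-phosphate in pH 8.0 TEA buffer. qHTS titrations up to 57 µM; curves classified by quality.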
In the case of `O=C(Nc1cccc(C(F)(F)F)c1)c1cccc(NS(=O)(=O)c2ccc(O)c(C(=O)O)c2)c1`, the Potency is reported as inconclusive [falling, single point]. With `CCOc1ccccc1C1N=C(c2ccc(OC)cc2)CC(c2ccccc2O)N1` (stereo not drawn) the “activity, negative = inhibition” value was inactive: -4.89%. `CCCN1Cc2cccc(C(=O)N3CCN(c4cc(Cl)ccc4C)CC3)c2C1=O` was tested, and the “activity, negative = inhibition” value was inactive: -7.69%. In the case of `CCCCNc1c(-c2cccc(SC(C)CC)c2)nc2ccc(Cl)cn12` (stereo not drawn), the “activity, negative = inhibition” value is reported as inactive: 4.16%. For `CCCCNC(=S)N/N=C/c1cccc(OCC)c1O`, the “activity, negative = inhibition” value was inactive: -0.631%. `COc1ccc(/C=N/NC(=O)c2ccc(NC(=O)c3cccc([N+](=O)[O-])c3)cc2)c(C(=O)O)c1OC` was tested, and the Potency was inconclusive [falling, single point]. In the case of `COc1ccc(-n2c(C)cc(/C=C3\C(=N)N4N=C(CC(=O)N5CCOCC5)SC4=NC3=O)c2C)c(OC)c1`, the Potency is reported as inconclusive [falling, single point]. `O=C(O)CC1S/C(=N/N=C/c2ccc(-c3ccc(Cl)cc3[N+](=O)[O-])o2)NC1=O` (stereo not drawn) was tested, and the Potency was inconclusive [activator, partial curve]. For `CCC(=O)NC(=S)NNC(=O)c1ccccc1[N+](=O)[O-]`, the Potency was inconclusive [falling, single point]. For `O=C1NC(=S)N/C1=C/c1cccc2ccccc12`, the “activity, negative = inhibition” value was inactive: -7.64%. With `O=C(Nc1ccc2c(c1)C(=O)NC2=O)c1ccccc1Cl` the Potency was inconclusive [falling, partial curve]. For `CCOc1cc(N2CCOCC2)c(OCC)cc1NS(=O)(=O)c1cc(NC(C)=O)ccc1OC`, the Potency was inconclusive [falling, single point]. For `O=C(O)CCC(=O)Nc1ccc(SSc2ccc(NC(=O)CCC(=O)O)cc2)cc1`, the Potency was inconclusive [falling, partial curve]. With `Cc1ccc(NC(=O)COc2ccc(Cl)cc2Cl)cc1S(=O)(=O)N1CCOCC1` the Potency was inconclusive [falling, partial curve]. For `Cc1ccc(N2C(=O)c3ccccc3C2C(=O)c2cc(C)ccc2O)cc1` (stereo not drawn), the Potency was inconclusive [falling, single point]. For `O=S(=O)(Nc1ccccc1F)c1cccc(NC(=S)NCCN2CCOCC2)c1`, the Potency was active: 7.57 µM. For `COc1ccc(C(C)=O)cc1CSc1nnc(Nc2ccc(C)cc2C)s1`, the “activity, negative = inhibition” value was inactive: 7.28%. For `CC1(C)CC(=O)C(C(=O)/C=C/c2ccco2)C(=O)C1`, the Potency was inconclusive [falling, single point]. For `CN1CCc2c(sc(/N=C/c3c[nH]c4ccccc34)c2C(N)=O)C1`, the Potency was inconclusive [activator, single point]. For `O=C1Nc2cc(C(=O)NCCCN3CCOCC3)ccc2S/C1=C/c1cccc(Cl)c1`, the “activity, negative = inhibition” value was inactive: 5.49%. With `CCc1sc(NC(=O)COC)nc1-c1ccccc1` the “activity, negative = inhibition” value was inactive: -4.28%. In the case of `CCOc1nc(C)ccc1-c1noc(-c2ccccn2)n1`, the “activity, negative = inhibition” value is reported as inactive: 1.07%. `O=C(Nc1ccc(S(=O)(=O)Nc2nccs2)cc1)c1nn(-c2ccccc2)ccc1=O` was tested, and the Potency was inconclusive [falling, full curve]. With `CCOC(=O)C(C(=O)OCC)C(Nc1cccc(Br)c1)c1ccccc1` (stereo not drawn) the Potency was inconclusive [falling, single point]. `O=C(Cc1ccccc1)Nc1cccc(N2C(=O)C=CC2=O)c1` was tested, and the Potency was inconclusive [falling, single point]. With `COc1ccc(OC)c(C2=Nn3c(nnc3C3CCCCC3)SC2)c1` the “activity, negative = inhibition” value was inactive: 1.93%. For `COCCSc1ccccc1C(=O)NCc1ccco1`, the Potency was inconclusive [falling, single point]. For `O=C(NCc1cccc(Cl)c1)c1ccc2c(c1)OCO2`, the Potency was inconclusive [falling, partial curve]. `O=C(Nc1ccc(F)cc1)Nn1cnnc1` was tested, and the “activity, negative = inhibition” value was inactive: -26.3%. `CCCNC(=O)Cn1nc([N+](=O)[O-])c([N+](=O)[O-])c1C` was tested, and the Potency was inconclusive [falling, single point]. `CCc1n[n+](CC(=O)c2ccccc2)c(N)s1` was tested, and the Potency was inconclusive [falling, single point]. `Cc1ccc(C(C[N+](=O)[O-])c2c(C)[nH]n(-c3ccccc3)c2=O)cc1` (stereo not drawn) was tested, and the Potency was inconclusive [activator, partial curve]. `O=C1C=C(Nc2ccc(O)cc2)C(=O)c2ccccc21` was tested, and the Potency was inconclusive [falling, partial curve, poor fit]. With `Clc1ccc(-c2cc(CN3CCCCC3)no2)cc1Cl` the Potency was inconclusive [falling, single point]. For `COc1ccccc1Nc1nc(C)cc(C)n1`, the Potency was inconclusive [falling, single point]. With `O=C(COC(=O)c1nc(Cl)ccc1Cl)Nc1ccc2[nH]c(=O)[nH]c2c1` the Potency was inconclusive [falling, single point]. With `O=C(/C=C/c1ccco1)Nc1ccc(F)cc1` the Potency was inconclusive [falling, partial curve, poor fit]. With `CC(=O)Nc1ccc(SCc2ncc(-c3ccccc3)o2)cc1` the “activity, negative = inhibition” value was inactive: 0.354%. In the case of `Cc1nnc(NC(=O)c2cc(-c3ccco3)nc3ccccc23)s1`, the Potency is reported as inconclusive [falling, full curve]. With `O=C(O)CC/C(=C\c1ccccc1[N+](=O)[O-])c1nc2ccccc2s1` the Potency was inconclusive [activator, single point]. In the case of `CCN(CC)CCN(C(=O)/C=C/c1cccs1)c1nc2ccc(Cl)cc2s1`, the “activity, negative = inhibition” value is reported as inactive: -6.73%. In the case of `CCCC[C@]12Cc3ccccc3[C@H](O1)C1=C(O2)C(=O)c2ccccc2C1=O`, the activity, negative = inhibition is reported as inactive: 3.51% [at 11.5 µM]. `CC(=O)N1CCN(C(=O)CCNS(=O)(=O)c2ccc(Br)cc2)CC1` was tested, and the Potency was inconclusive [falling, single point]. `N#Cc1ccc(OCC(=O)Nc2ccncc2)cc1` was tested, and the Potency was inconclusive [falling, partial curve]. In the case of `Cc1ccc(C(=O)N/N=C\c2cc3c(cc2Br)OCO3)s1`, the Potency is reported as inconclusive [falling, partial curve]. With `O=C(CCl)NC(Cc1c[nH]c2ccc(OCc3ccccc3)cc12)C(=O)O` (stereo not drawn) the Potency was inconclusive [falling, single point]. For `COc1ccc(C2Nc3ccc4ccccc4c3-c3c2c(=O)oc2ccccc32)cc1` (stereo not drawn), the “activity, negative = inhibition” value was inactive: 0.108%. For `CC(C)CN(CC(C)C)C1=N/C(=C\c2ccco2)C(=O)N1c1ccccc1`, the “activity, negative = inhibition” value was inactive: 1.73%. With `COC(=O)c1ccc(NC(=O)COc2ccc3c(c2)OCO3)cc1` the “activity, negative = inhibition” value was inactive: 0.755%. `O=C(O)CCC(=O)NNC(=O)COc1ccc(Cl)cc1Cl` was tested, and the “activity, negative = inhibition” value was inactive: -4.04%. `CC(=O)Nc1cccc(/C(C)=N/NC(=O)c2ccc(NS(=O)(=O)c3cccs3)cc2)c1` was tested, and the “activity, negative = inhibition” value was inactive: 1.86%. For `O=C(Nc1nccc(-c2cccs2)n1)c1cccs1`, the “activity, negative = inhibition” value was inactive: 1.27%. With `O=c1ccc2cc3c([nH]c4ccc(Br)cc43)oc-2c1O` the Potency was inconclusive [falling, single point]. With `O=C(Nc1nc2ccsc2c(=O)s1)c1ccc(Cl)cc1` the Potency was inconclusive [falling, single point]. `COc1ccccc1C(=O)Nc1ccc(OCc2nnc3c4ccccc4c(C)nn23)cc1` was tested, and the Potency was inconclusive [falling, single point]. For `CC(C(=O)N(C)Cc1ccccc1)N1CCN(C/C=C/c2ccccc2)CC1` (stereo not drawn), the “activity, negative = inhibition” value was inactive: 0.33%. In the case of `Cc1cc(C)cc(C(=O)OCC(=O)NCc2ccco2)c1`, the Potency is reported as inconclusive [falling, single point]. With `CC(=O)OCCNc1cc(SCc2ccco2)c2nonc2c1[N+](=O)[O-]` the Potency was inconclusive [falling, single point]. With `CNC(=O)c1c(O)c2cccc3c2n(c1=O)CCC3` the “activity, negative = inhibition” value was inactive: -1.25%. With `N#C/C(=C\c1ccccc1)C(=O)NNS(=O)(=O)c1ccc(Br)cc1` the Potency was inconclusive [activator, single point]. With `COc1cccc(C(=O)CSc2nnc(COc3cccc4cccnc34)o2)c1` the Potency was inconclusive [falling, single point]. For `Cc1ccc(NC(=O)c2cc(S(=O)(=O)N(C)C)ccc2N2CCCC2)cc1F`, the Potency was inconclusive [falling, single point]. In the case of `CC(=O)c1c(C)[nH]c(C(=O)OCC(=O)Nc2ccc3[nH]c(=O)[nH]c3c2)c1C`, the Potency is reported as inconclusive [falling, single point]. `Nc1ccc(-c2nc3nc(N)nc(N)c3nc2-c2ccc(N)cc2)cc1` was tested, and the Potency was inconclusive [activator, single point]. In the case of `O=C(COC(=O)/C=C/c1ccco1)NCc1ccco1`, the Potency is reported as inconclusive [falling, full curve]. `O=C(CSc1nc(-c2ccccc2)nc2c1Cc1ccccc1O2)Nc1ccc(C(=O)O)cc1` was tested, and the Potency was inconclusive [falling, single point]. In the case of `O=C(NCc1cccnc1)C(=O)NCC1OCCN1S(=O)(=O)c1ccc(F)cc1` (stereo not drawn), the Potency is reported as inconclusive [falling, partial curve]. With `CC1=CC(C)(C)N(S(=O)(=O)c2ccc(C)cc2)c2ccccc21` the “activity, negative = inhibition” value was inactive: 2.9%. For `O=[N+]([O-])c1ccc(C[n+]2cccc3c4ccccc4ccc32)cc1`, the Potency was inconclusive [falling, single point]. With `CCCNC(=O)OCc1cccnc1Sc1ccc(C)cc1` the “activity, negative = inhibition” value was inactive: -1.99%. With `COc1ccc(C(=O)COC(=O)CNC(=O)c2ccc(C)s2)c(OC)c1` the “activity, negative = inhibition” value was inactive: -3.97%. For `CN(/N=C/c1ccc([N+](=O)[O-])o1)c1ccccc1`, the Potency was inconclusive [falling, single point]. For `CCC(=O)NC(=S)Nc1cccc(Cl)c1N1CCCC1`, the “activity, negative = inhibition” value was inactive: -1.73%.

From PubChem BioAssay AID485367 (National Center for Advancing Translational Sciences (NCATS), 2010)
Note: nearly all actives have a fitted effect of over 60% in size.
Potency is the fitted concentration of half-maximal effect; tags give direction and shape of the fitted curve.
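Throughout, for activity, negative = inhibition: 0% = uninhibited 1x PFK enzyme wells and -100% = no-enzyme wells.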
